This is one part of the list.
System: S. aureus RN4220
Assay: growth inhibition call (relative growth <= 0.2)
Details: 50 µM

Growth inhibition call, inactive:
C[C@H](CO)N1C[C@H](C)[C@@H](CN(C)S(=O)(=O)c2ccc(F)cc2)Oc2ccc(NC(=O)CCN3CCOCC3)cc2CC1=O
Cc1ccc(S(=O)(=O)N2C[C@@H](O)COC[C@H]3O[C@H](CC(=O)N[C@H]4CCN(Cc5ccccc5)C4)CC[C@@H]32)cc1
CS(=O)(=O)OCCCCOS(C)(=O)=O
CC(C)N1C[C@H](CN(C)Cc2ccc(Oc3ccccc3)cc2)Oc2c(NC(=O)c3ccncc3)cccc2C1=O
CO[C@@H]1CN(C)C(=O)c2ccc(NC(=O)C3CC3)cc2OC[C@H](C)N(C(=O)CN2CCOCC2)C[C@H]1C
C[C@H]1CN([C@@H](C)CO)C(=O)c2cc(NC(=O)Nc3ccc4c(c3)OCO4)ccc2O[C@H]1CN(C)Cc1ccc(C(=O)Nc2ccccc2N)cc1
C[C@@H]1CN([C@H](C)CO)C(=O)c2cc(NS(=O)(=O)c3cn(C)cn3)ccc2O[C@@H]1CN(C)Cc1ccc(C(=O)O)cc1
CCc1nc(N)nc(N)c1-c1ccc(Cl)cc1
COc1ccc(CN(C)C[C@H]2OCCCC[C@@H](C)Oc3ccc(NS(=O)(=O)c4ccc(C)cc4)cc3C(=O)N([C@@H](C)CO)C[C@H]2C)cc1
COc1ccc(C#Cc2cnc3c(c2)C(=O)N([C@@H](C)CO)C[C@@H](C)[C@H](CN(C)C(=O)CC2CC2)O3)cc1
CC(C)OC(=O)c1cn(Cc2c(F)cccc2F)c2sc(-c3ccc(NC(=O)C(C)C)cc3)c(CN(C)Cc3ccccc3)c2c1=O
Cc1noc(C)c1S(=O)(=O)Nc1ccc2c(c1)C(=O)N([C@H](C)CO)C[C@H](C)[C@@H](CN(C)S(=O)(=O)c1ccc(Cl)cc1)O2
C[C@H](CO)N1C[C@H](C)[C@H](CN(C)C(=O)c2cc(Cl)cc(Cl)c2)OCc2ccccc2-c2ccccc2C1=O
COc1ccc(S(=O)(=O)N(C)C[C@@H]2OCCCC[C@@H](C)Oc3ccc(NC(=O)C4CCCCC4)cc3C(=O)N([C@H](C)CO)C[C@@H]2C)cc1
C[C@@H]1CN([C@@H](C)CO)C(=O)Cc2cc(NS(=O)(=O)c3cn(C)cn3)ccc2O[C@H]1CN(C)S(C)(=O)=O
C[C@H]1CN([C@@H](C)CO)C(=O)c2cc(NS(=O)(=O)c3cn(C)cn3)ccc2O[C@H]1CN(C)C(=O)Nc1ccc(F)cc1
Cc1noc(C)c1NC(=O)N(C)C[C@@H]1Oc2ncc(C#CCN(C)C)cc2C(=O)N([C@@H](C)CO)C[C@H]1C
C[C@@H]1CCCCO[C@H](CN(C)C(=O)CCC(F)(F)F)[C@@H](C)CN([C@H](C)CO)C(=O)c2cc(NC(=O)NC3CCCCC3)ccc2O1
CN(C)CCCCCCNC(=O)[C@H]1C[C@H]2C(=O)N[C@@H](CCCC[N+](C)(C)C)C(=O)N2[C@H]1c1cccc(OCCO)c1
C[C@@H]1CN([C@H](C)CO)C(=O)c2cc(C#Cc3ccccc3F)cnc2O[C@H]1CN(C)C(=O)c1ccc2c(c1)OCO2
C[C@@H]1CCCCO[C@H](CN(C)S(C)(=O)=O)[C@@H](C)CN([C@@H](C)CO)C(=O)c2cc(NC(=O)c3ccncc3)ccc2O1
CC(=O)NCC(=O)N1CCC2(CC1)C(=O)N(CC1CC1)CCN2C
C[C@H](CO)N1C[C@H](C)[C@H](CN(C)Cc2ccc(C(F)(F)F)cc2)Oc2ccc(NC(=O)Cn3cnnn3)cc2C1=O
C[C@@H]1CN([C@@H](C)CO)S(=O)(=O)c2ccc(C#CC(C)(C)O)cc2O[C@H]1CN(C)C(=O)CN(C)C
C[C@@H]1CN([C@@H](C)CO)C(=O)Cc2cc(NS(=O)(=O)c3cn(C)cn3)ccc2O[C@@H]1CN(C)CC1CC1
O=C(C[C@@H]1CC[C@@H](NS(=O)(=O)c2ccccc2)[C@@H](CO)O1)NCc1ccncn1
Cc1ccc(-c2ccc3c(c2)O[C@@H](CN(C)C(=O)CN(C)C)[C@@H](C)CN([C@@H](C)CO)S3(=O)=O)cc1
C[C@H]1CN([C@@H](C)CO)C(=O)c2cc(NC(=O)NC3CCCCC3)ccc2O[C@H]1CN(C)S(=O)(=O)c1cn(C)cn1
C[C@@H]1CCCCO[C@@H](CN(C)C(=O)NC2CCCCC2)[C@@H](C)CN([C@@H](C)CO)C(=O)c2cc(NC(=O)c3ccccc3)ccc2O1
COc1ccc(S(=O)(=O)Nc2ccccc2CN(C)C/C=C/c2ccc(Cl)cc2)cc1.O=P(=O)OO
Cc1noc(C)c1NC(=O)N(C)C[C@H]1Oc2c(NS(=O)(=O)c3cn(C)cn3)cccc2C(=O)N([C@@H](C)CO)C[C@H]1C
Cc1noc(C)c1S(=O)(=O)Nc1ccc2c(c1)C(=O)N([C@H](C)CO)C[C@H](C)[C@@H](CN(C)Cc1ccccc1)O2
CCN(CCCCOC(=O)c1ccc(OC)c(OC)c1)C(C)Cc1ccc(OC)cc1.Cl (stereo not given)
C[C@@H]1CN([C@H](C)CO)C(=O)c2cc(NC(=O)C3CCCCC3)ccc2O[C@@H](C)CCCCO[C@@H]1CN(C)C(=O)Nc1cccc2ccccc12
C[C@H](CO)N1C[C@H](C)[C@H](CN(C)C(=O)c2ccc3c(c2)OCO3)Oc2ncc(C#Cc3ccccc3F)cc2C1=O
C[C@H](CO)N1C[C@H](C)[C@H](CN(C)S(=O)(=O)c2cn(C)cn2)Oc2ncc(C#Cc3ccc(F)cc3)cc2C1=O
C[C@H](NC(=O)C[C@@H]1CC[C@@H](NC(=O)CN2CCOCC2)[C@H](CO)O1)c1ccccc1
CCS(=O)(=O)N1C[C@]2(CCN(CC2)Cc2cccc(c2)OC)c2c(n(c3cc(ccc23)OC)C)[C@@H]1CO
COc1ccc(S(=O)(=O)Nc2ccc3c(c2)C(=O)N([C@@H](C)CO)C[C@H](C)[C@@H](CN(C)CC2CC2)O3)cc1
Cc1ccc(S(=O)(=O)Nc2ccc3c(c2)CC(=O)N([C@H](C)CO)C[C@@H](C)[C@@H](CN(C)Cc2ccc(C(F)(F)F)cc2)O3)cc1
